In patent publication US20090214547A1:
Some entries of the source have several records that differ or are many. The list is limited to them. An entry can have further records. The values listed for one entry seem to repeat one measurement; one of them may be the mean.

Target: Peptide GNT-07
Experiment: peptide ELISA, plate 1

B1: 22-1C11.1 (antibody, V domains shown)
VH: VKLQESGGGVVQPGRSLRLSCAASGFTFSNYGMHWVRQAPGKGLEWVAVIWYDGSNKYYADFVKGRFTISRDNSKNTLYLQMNSLRAEDTAVYYCARRGNYYGLGSFYYYGMDVWGQGTTVTVSS
VL: DIQMTQSPATLSLSPGERATLSCRASQSVSSYLAWYQQKPGQAPRLLIYDASNRATGIPARFSGSGSGTDFTLTISSLEPEDFAVYYCQQCSNWHPTFGQGTKLEIKR
With B1 the Elisa reading was 0.24, 0.58, 1.01 [lines of one column].
